Among the data in PMC12350670 (2025) are Kd values, retold here.

Common to all, as to assay: BLI
For orientation: Biolayer interferometry detects binding as a change in optical thickness at a sensor tip.

Assay [1] concerns the target NGS2405-Fc (anti-FAP VNAR NGS2405 fused to the Fc of human IgG1) (nurse shark (Ginglyomostoma cirratum)).
The target of assay [2] is H15-Fc (anti-FAP VNAR H15 fused to the Fc of human IgG1) (nurse shark (Ginglyomostoma cirratum)).
Assay [3] has as its target H17-Fc (anti-FAP VNAR H17 fused to the Fc of human IgG1) (nurse shark (Ginglyomostoma cirratum)).

B1: recombinant human fibroblast activation protein (hFAP) (enzyme)
chain: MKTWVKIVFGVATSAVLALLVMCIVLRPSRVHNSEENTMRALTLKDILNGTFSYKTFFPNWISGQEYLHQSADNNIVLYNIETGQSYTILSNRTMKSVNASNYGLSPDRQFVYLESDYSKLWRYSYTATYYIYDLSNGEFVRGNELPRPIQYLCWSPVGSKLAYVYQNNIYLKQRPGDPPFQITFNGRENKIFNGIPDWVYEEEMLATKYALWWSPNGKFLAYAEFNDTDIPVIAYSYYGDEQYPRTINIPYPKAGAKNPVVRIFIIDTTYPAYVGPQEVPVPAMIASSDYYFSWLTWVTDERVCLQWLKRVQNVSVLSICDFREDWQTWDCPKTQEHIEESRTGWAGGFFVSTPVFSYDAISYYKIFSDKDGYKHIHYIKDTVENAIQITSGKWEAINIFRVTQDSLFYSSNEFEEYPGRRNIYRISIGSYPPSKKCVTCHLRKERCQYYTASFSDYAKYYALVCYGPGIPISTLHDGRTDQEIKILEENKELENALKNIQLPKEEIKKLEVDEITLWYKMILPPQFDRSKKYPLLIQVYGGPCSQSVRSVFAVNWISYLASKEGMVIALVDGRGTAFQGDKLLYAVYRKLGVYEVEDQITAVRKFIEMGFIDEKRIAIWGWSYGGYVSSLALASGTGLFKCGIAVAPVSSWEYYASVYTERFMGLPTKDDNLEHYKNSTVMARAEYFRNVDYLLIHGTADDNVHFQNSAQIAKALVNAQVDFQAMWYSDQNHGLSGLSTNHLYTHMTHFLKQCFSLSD
modifications: biotin (EZ-link NHS-PEG4-biotin) for BLI and ELISA
Consider B1, for which the Kd in assay [1] turned out to be 0.356 nM; in assay [2], 1.28 nM; in assay [3] it was 0.539 nM.

A word on the Kd: it is a measure of binding affinity in units of concentration.
